Measurements reported in PubChem BioAssay AID1347073 (National Center for Advancing Translational Sciences (NCATS), 2019).
About 200 (0.44%) of roughly 45,000 compounds were called active. The shares of active, inactive and inconclusive entries below differ from those in the screen. The call rests on the fitted dose curve; in most records, active means well fitted activation curve with a large enough effect; inconclusive means small, poorly fitted or top-dose-only effect; inactive means no such curve, though single readings can be large or run the other way. Where the call is inconclusive, the potency comes from a doubtful curve fit.

Assay: qHTS of TDP-43 Inhibitors: NCGC Sytravon Library Screen; further: nearly all actives have a fitted effect of over 55% in size; on growth rescue (activation): 0% is about no effect
Conditions: yeast TDP-43 toxicity rescue, BacTiter-Glo growth, 24 h; growth rescue (activation): at 46.1 µM (top of the series)
Excerpt: The goal of this project is to identify new chemical probes capable of reversing the toxicity associated with TDP-43 which is associated with frontotemporal lobar degeneration and amyotrophic lateral sclerosis. These compounds will provide a complementary approach to deciphering the tangled mechanisms of toxicity and protection that we have uncovered through genome-wide genetic screens and are beginning to uncover in a large-scale proteomics analysis with mass spectroscopy. To this end, a miniaturized assay was developed to be screened against the Molecular Libraries Small Molecule Repository (MLSMR) to discover TDP-43 inhibitors. Please note that in the set-up this yeast-based assay compounds that inhibit as TDP-43, have a read-out as activators. NIH Chemical Genomics Center [NCGC] NIH Molecular Libraries Probe Centers Network [MLPCN] Assay Submitter (PI): Susan Lindquist, Whitehead Institute/MIT MLPCN Grant: R21 NS060957
Dispense 2.5 microL yeast galactose medium per 1536-well plate, pin compound, dispense 2.5 microL TDP-43 expressing yeast in galactose medium at OD600=0.02 (pregrown in raffinose medium to mid-log phase) per well, incubate for 24 hr at 30 deg C, and cell growth will be measured using 5 microL of Bactiter/Glo reagent to entire plate and read using Luminescence Protocol in ViewLux.
Potency means the concentration at half of the fitted maximal effect; tags describe the fitted curve by direction and shape.

Q: For `CC(C)OC(=O)c1cc(-c2ccc(C=O)o2)ccc1Cl`, which Potency is on record?
A: inconclusive: 15.8 µM [activator, single point]

Q: Which Potency does the source give for `CCOC(=O)C1CCN(Cc2cc(Cl)c3ccccc3c2O)CC1` here?
A: inconclusive: 35.5 µM [activator, single point]

Q: For `CC1(C)C2CCC1(C)C(OC(=O)c1ccccc1C(=O)O)C2` (stereo unspecified), which Potency is on record?
A: inconclusive: 20 µM [activator, single point]

Q: Which “growth rescue (activation)” value does the source give for `COc1ccc(N2CCN(c3oc(/C=C/c4ccc(F)cc4)nc3C#N)CC2)cc1` here?
A: inactive: -9.37%

Q: With `Cc1cc2ncn(-c3ncnc4sc(C)c(C)c34)c2cc1C` as the molecule, how does the Potency read?
A: inconclusive: 25.1 µM [activator, single point]

Q: Which growth rescue (activation) does the source give for `COc1ccc(C(O)c2nc(-c3cccc(F)c3)cs2)cc1` (stereo unspecified) here?
A: inconclusive: 109% [activator]

Q: Which Potency does the source give for `O=C(c1cnn(C(=O)c2cccc(S(=O)(=O)N3CCOCC3)c2)c1)c1cc(Cl)cc(Cl)c1O` here?
A: inconclusive: 20 µM [activator, single point]

Q: For `CC1CC(C)CN(C(=O)c2cccc(S(=O)(=O)Nc3cc(C(F)(F)F)ccc3Cl)c2)C1` (stereo unspecified), which Potency is on record?
A: inconclusive: 12.6 µM [activator, partial curve, poor fit]

Q: For `Cc1ccccc1CNC(=O)C1CCN(c2nnc(-n3c(C)ccc3C)s2)CC1`, which “growth rescue (activation)” value is on record?
A: inactive: 5.24%

Q: For `CC(C)(Oc1ccc(Cl)cc1)C(=O)Nc1ccc2oc(=O)ccc2c1`, which Potency is on record?
A: inconclusive: 12.6 µM [activator, partial curve, poor fit]

Q: Which Potency does the source give for `O=C(Nc1cc(Cl)ccn1)C1(c2ccccc2)CC1(Cl)Cl` (stereo unspecified) here?
A: inconclusive: 3.98 µM [activator, full curve, poor fit]

Q: Which growth rescue (activation) does the source give for `Cc1ccccc1-c1csc(C(O)c2ccc(F)c(F)c2)n1` (stereo unspecified) here?
A: inconclusive: 116% [activator]

Q: Which Potency does the source give for `Cc1cc(N2C(=O)C3CC=CCC3C2=O)cc(C)c1Br` (stereo unspecified) here?
A: inconclusive: 14.1 µM [activator, single point]

Q: With `CC(NC(=O)COC(=O)Cc1ccc(-c2ccccc2)cc1)c1ccccc1` (stereo unspecified) as the molecule, how does the Potency read?
A: inconclusive: 22.4 µM [activator, partial curve, poor fit]

Q: Which “growth rescue (activation)” value does the source give for `COc1cc(C(=O)NC(=S)Nc2ccc(N3CCCC3)cc2)cc(OC)c1OC` here?
A: inactive: 15.9%

Q: Which Potency does the source give for `COc1ccc(C2(C)NC(=O)N(CC3CCCCC3)C2=O)cc1` (stereo unspecified) here?
A: inconclusive: 15.8 µM [activator, partial curve, poor fit]

Q: For `Fc1ccc(Nc2c3c(nc4nncn24)CCC3)cc1`, which Potency is on record?
A: inconclusive: 31.6 µM [activator, partial curve]

Q: With `O=C(Nc1noc2ccccc12)c1c(F)cccc1F` as the molecule, how does the “growth rescue (activation)” value read?
A: inactive: 20.4%

Q: For `O=C(O)c1cccc(NC2=C(N3CCOCC3)C(=O)c3ccccc3C2=O)c1`, which Potency is on record?
A: inconclusive: 31.6 µM [activator, single point]

Q: For `CCNC(=O)c1ccccc1NC(=O)c1cccc(S(=O)(=O)N2CCC(C)CC2)c1`, which Potency is on record?
A: inconclusive: 35.5 µM [activator, single point]

Q: Which Potency does the source give for `CCOc1ccc(OCCC(=O)N2CCc3cc(OC)c(OC)cc3C2)cc1` here?
A: inconclusive: 8.91 µM [activator, partial curve]

Q: With `O=C(c1cccc(-c2nnc(-c3ccccc3)o2)c1)N1CCCCC1` as the molecule, how does the Potency read?
A: inconclusive: 17.8 µM [activator, partial curve, poor fit]

Q: For `COc1ccc(CNC(=O)CC23CC4CC(CC(C4)C2)C3)cc1OC`, which Potency is on record?
A: inconclusive: 12.6 µM [activator, partial curve, poor fit]

Q: For `COc1ccc(S(=O)(=O)N(C)CC(=O)NCc2ccccn2)cc1`, which “growth rescue (activation)” value is on record?
A: inactive: -22.9%

Q: Which Potency does the source give for `COC(=O)Cc1ccc(NC(=S)NCc2ccc(Cl)cc2)cc1` here?
A: inconclusive: 12.6 µM [activator, partial curve, poor fit]

Q: For `O=C(c1cc2cc(Cl)ccc2o1)N1CCCCCC1`, which Potency is on record?
A: inconclusive: 14.1 µM [activator, partial curve, poor fit]

Q: For `CN(C)c1cccc(C(=O)NCC(c2ccco2)N(C)C)c1` (stereo unspecified), which “growth rescue (activation)” value is on record?
A: inactive: 3.31%

Q: Which Potency does the source give for `O=C(Nc1ccc2c(c1)OCCO2)NC1CCCCC1` here?
A: inconclusive: 35.5 µM [activator, single point]

Q: Which Potency does the source give for `COc1ccc(-c2ncncc2-c2ccc(Cl)cc2)c(O)c1` here?
A: inconclusive: 17.8 µM [activator, partial curve, poor fit]

Q: Which Potency does the source give for `N#Cc1cc2c(=O)n3ccccc3nc2n(Cc2cccnc2)c1=O` here?
A: inconclusive: 35.5 µM [activator, partial curve, poor fit]

Q: With `Cc1ccccc1Nc1c(-c2ccc(Br)cc2O)nc2sccn12` as the molecule, how does the Potency read?
A: inconclusive: 22.4 µM [activator, single point]

Q: For `FC(F)(F)c1cccc(NC(=S)NC2CCCC2)c1`, which Potency is on record?
A: inconclusive: 35.5 µM [activator, single point]

Q: With `CCOc1ccc(NC(=S)NC(C)c2cccs2)cc1` (stereo unspecified) as the molecule, how does the Potency read?
A: inconclusive: 15.8 µM [activator, partial curve, poor fit]

Q: With `CCOC(=O)N1CCN(c2ccc(Cl)cc2)CC1` as the molecule, how does the Potency read?
A: inconclusive: 35.5 µM [activator, single point]

Q: With `CC(C)c1cccc(-c2csc(C(O)c3ccco3)n2)c1` (stereo unspecified) as the molecule, how does the Potency read?
A: inconclusive: 11.2 µM [activator, partial curve, poor fit]

Q: For `O=C(O)c1ccccc1CSc1nc2ccccc2n1Cc1ccccc1C(=O)O`, which “growth rescue (activation)” value is on record?
A: inactive: 2.66%

Q: For `COc1ccc(NC(=O)C2(C)CCN2C(=O)c2ccccc2CCc2ccccc2)cc1OC` (stereo unspecified), which Potency is on record?
A: inconclusive: 14.1 µM [activator, single point]

Q: With `CC(O)(c1ccc(F)c(F)c1)c1nc(-c2cccc3cccnc23)cs1` (stereo unspecified) as the molecule, how does the growth rescue (activation) read?
A: inconclusive: 63.3% [activator]

Q: Which “growth rescue (activation)” value does the source give for `COCCC(=O)N1CCC(Oc2ccc(C(=O)NC(C)CCn3cccn3)cc2)CC1` (stereo unspecified) here?
A: inactive: 15.8%

Q: For `COc1ccc(C)cc1NC(=O)C/C(C)=N/NC(=O)Cc1cccc2ccccc12`, which “growth rescue (activation)” value is on record?
A: inactive: 6.11%

Q: Which “growth rescue (activation)” value does the source give for `O=[N+]([O-])c1ccc(-c2ccc(S(=O)(=O)NCCN3CCCC3)cc2)cc1` here?
A: inactive: -4.48%

Q: For `CSc1nc2ccsc2c(=O)n1-c1ccccc1`, which Potency is on record?
A: inconclusive: 12.6 µM [activator, single point]

Q: With `Cc1ccc(-c2c3c(nc4sc(C(N)=O)c(N)c24)CCCC3)o1` as the molecule, how does the Potency read?
A: inconclusive: 22.4 µM [activator, single point]

Q: With `O=C(c1ccc2ccccc2n1)N1CCN(S(=O)(=O)c2ccc(Cl)cc2)CC1` as the molecule, how does the Potency read?
A: inconclusive: 15.8 µM [activator, single point]

Q: For `COc1ccc(/C=N/NC(N)=S)cc1`, which Potency is on record?
A: inconclusive: 12.6 µM [activator, partial curve, poor fit]

Q: Which “growth rescue (activation)” value does the source give for `COc1ccc(-n2cnnc2SCC(=O)Nc2cccc(S(N)(=O)=O)c2)cc1` here?
A: inactive: -0.153%

Q: For `COc1ccccc1NC(=O)c1ccccc1NS(=O)(=O)c1cccs1`, which Potency is on record?
A: inconclusive: 35.5 µM [activator, single point]

Q: With `Cc1ccc(/C=C/C(=O)N2CCN(S(=O)(=O)c3ccc(C)c(C)c3)CC2)o1` as the molecule, how does the Potency read?
A: inconclusive: 35.5 µM [activator, single point]

Q: For `COc1ccc(C)cc1-n1nnnc1SCc1cn2ccsc2n1`, which Potency is on record?
A: inconclusive: 35.5 µM [activator, single point]

Q: With `CCn1cc(C(=O)OCC(=O)Nc2ccccc2OC(F)F)c(=O)c2ccc(C)nc21` as the molecule, how does the Potency read?
A: inconclusive: 20 µM [activator, single point]

Q: With `Cc1nc2scc(C)n2c(=O)c1S(=O)(=O)N1CCN(c2cccc(C(F)(F)F)c2)CC1` as the molecule, how does the Potency read?
A: inconclusive: 15.8 µM [activator, partial curve, poor fit]

Q: Which Potency does the source give for `CSc1ccccc1OCc1cc(C(=O)N(C)C(C)c2ccccn2)no1` (stereo unspecified) here?
A: inconclusive: 7.94 µM [activator, partial curve]

Q: With `Cc1cc(C)cc(C(=O)NCC(=O)N2CCN(c3cccc(Cl)c3)CC2)c1` as the molecule, how does the Potency read?
A: inconclusive: 11.2 µM [activator, partial curve]

Q: For `O=C(COC(=O)c1c2ccccc2cc2ccccc12)NCC(F)(F)F`, which Potency is on record?
A: active: 22.4 µM

Q: For `CCn1cc(C(=O)O)c(=O)c2cc(F)c(N3CCN(C(=S)Nc4ccc(OC)cc4)CC3)cc21`, which Potency is on record?
A: inconclusive: 35.5 µM [activator, single point]

Q: With `O=C(Nc1ccc(N2CCN(C(=O)c3ccco3)CC2)c(Cl)c1)c1c(F)c(F)c(F)c(F)c1F` as the molecule, how does the Potency read?
A: inconclusive: 35.5 µM [activator, partial curve, poor fit]

Q: For `O=C(O)c1ccc(/C=N/O)cc1`, which Potency is on record?
A: inconclusive: 35.5 µM [activator, single point]

Q: For `Cc1cccc(-n2c(SCC(=O)N3CCC(C(=O)O)CC3)nc3ccccc3c2=O)c1C`, which “growth rescue (activation)” value is on record?
A: inactive: -25%

Q: Which Potency does the source give for `CCCc1ccc(OC(=O)c2ccc(O)cc2Cl)cc1` here?
A: inconclusive: 14.1 µM [activator, partial curve, poor fit]

Q: For `CC(O)(c1ccccc1)c1nc(-c2cccc(F)c2)cs1` (stereo unspecified), which growth rescue (activation) is on record?
A: inconclusive: 107% [activator]

Q: With `CC(C)C1Cc2c(C#N)c(N)sc(=S)c2CO1` (stereo unspecified) as the molecule, how does the Potency read?
A: inconclusive: 22.4 µM [activator, single point]

Q: With `Fc1ccc(Oc2ccc3nnc(C(F)(F)F)n3n2)cc1` as the molecule, how does the Potency read?
A: inconclusive: 15.8 µM [activator, single point]

Q: With `CC1(C)Cc2c(sc3nc4n(-c5ccccc5)c(=O)c(CCC(=O)O)nn4c(=O)c23)CO1` as the molecule, how does the Potency read?
A: inconclusive: 20 µM [activator, partial curve, poor fit]

Q: For `COc1cc2c(cc1OC)/C(=C/c1ccc(Cl)cc1)C(=O)OC2`, which Potency is on record?
A: inconclusive: 28.2 µM [activator, single point]

Q: Which Potency does the source give for `Cc1ccc(Sc2ncccc2/C=N/O)cc1` here?
A: inconclusive: 15.8 µM [activator, single point]

Q: Which Potency does the source give for `O=C(CN1C(=O)NC(c2ccccc2)(c2ccccc2)C1=O)Nc1ccc2[nH]c(=O)[nH]c2c1` here?
A: inconclusive: 35.5 µM [activator, single point]
